Measurements published in PubChem BioAssay AID360 (National Center for Advancing Translational Sciences (NCATS), 2006).
In all, about 48,000 compounds went through this assay and about 550 (1.1%) were called active. Another 4% or so got no clear call; they are omitted. No stated cut-off is given here; in the data, active means potency below about 15 µM; inconclusive means mostly about 16 µM to 33 µM; inactive means weaker than that. Some of the results follow.

target: Lysosomal acid glucosylceramidase (Homo sapiens) (UniProt P04062); test: Glucocerebrosidase; details: purified enzyme, resorufin glucoside fluorescence (screen aimed at inhibitors), 20 min;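 further: the screen sought inhibitors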
Chain of UniProt P04062 (P04062 whole entry, looked up): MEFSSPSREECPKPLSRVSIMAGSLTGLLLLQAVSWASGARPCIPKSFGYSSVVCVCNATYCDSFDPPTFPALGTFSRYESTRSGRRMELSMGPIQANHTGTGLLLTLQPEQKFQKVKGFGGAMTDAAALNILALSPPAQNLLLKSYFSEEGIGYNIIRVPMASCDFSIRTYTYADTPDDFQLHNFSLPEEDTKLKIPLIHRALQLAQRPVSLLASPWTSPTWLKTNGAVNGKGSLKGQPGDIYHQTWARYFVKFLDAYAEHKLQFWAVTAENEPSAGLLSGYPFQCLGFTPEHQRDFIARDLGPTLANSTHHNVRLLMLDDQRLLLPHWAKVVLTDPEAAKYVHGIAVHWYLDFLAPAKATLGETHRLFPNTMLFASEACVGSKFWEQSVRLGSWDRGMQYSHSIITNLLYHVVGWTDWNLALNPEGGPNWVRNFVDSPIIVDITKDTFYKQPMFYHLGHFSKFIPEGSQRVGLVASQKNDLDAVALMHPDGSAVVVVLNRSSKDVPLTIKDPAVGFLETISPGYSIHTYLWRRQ
How it was run: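 Wild-type enzyme at 0.2 nM final in 50mM citric acid/KH2PO4, 10mM sodium taurocholate, 0.01% tween-20, pH 5.9, with resorufin beta-D-glucopyranoside at 30 uM final. Compounds titrated, 20 min at RT, red fluorescence read; AC50 from titration.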
Potency means the concentration at half of the fitted maximal effect.

Potency, inactive:
O=C(CN1C(=O)NC2(CCOc3ccccc32)C1=O)Nc1ccc2c(c1)OCCO2 (stereo not given) > 76.9 µM
COCCN(C(=O)CN1CCc2ccccc2C1)c1c(N)n(Cc2ccccc2)c(=O)[nH]c1=O > 76.9 µM
CC(=O)Nc1ccc(S(=O)(=O)NCC(C)NS(=O)(=O)c2ccc(NC(C)=O)cc2)cc1 (stereo not given) > 76.9 µM
O=C(NCc1ccccn1)C1CCCN(S(=O)(=O)c2ccc(Br)cc2)C1 (stereo not given) > 76.9 µM
COc1ccc(CCNC(=O)c2cnn(-c3ccc(C)c(C)c3)c2NC(=O)c2ccco2)cc1OC > 76.9 µM
COc1ccccc1-n1cnnc1SCC(=O)Nc1ncc(Cl)cc1Cl > 76.9 µM
COCCNC(=O)CSc1nc2ccc(N3CCOCC3)cc2c(=O)n1CCc1ccccc1 > 76.9 µM
O=C(Cc1ccccn1)Nc1ccccc1 > 76.9 µM
CSCCC(NC(=O)c1ccccc1)C(=O)NCc1ccco1 (stereo not given) > 76.9 µM
CCOc1ccc2nc(NCCNC(=O)CC)c(C#N)cc2c1 > 76.9 µM
CCCn1nnc(NC(=O)c2cccc(OCC)c2)n1 > 76.9 µM
CC(Oc1cccc(Cl)c1)C(=O)Nc1cc(=O)n(C)c(=O)n1C (stereo not given) > 76.9 µM
COc1ccccc1N1CCN(CCCNC(=O)Nc2ccccc2)CC1 > 76.9 µM
CC(=O)N(C)c1ccc(NC(=O)c2ccccc2C(=O)O)cc1 > 76.9 µM
Cc1nnc(SCCCn2c(N3CCN(c4ccccc4)CC3)nc3c2c(=O)[nH]c(=O)n3C)s1 > 76.9 µM
Nc1nc(-c2ccc(Br)cc2)cs1 > 76.9 µM
C=C(C)COc1ccc(-c2n[nH]c(C)c2-c2ccccc2OC)c(O)c1 > 76.9 µM
Cc1ccc(CCN2CC(C(=O)NCc3ccco3)CC2=O)cc1 (stereo not given) > 76.9 µM
O=C(Nc1n[nH]c(C2CCCCC2)n1)C1CCCCC1 > 76.9 µM
O=C1CC(c2ccccc2)CC2=C1CN(C1CCCCC1)CN2 (stereo not given) > 76.9 µM
Cc1ccc(OCC(O)Cn2c(NCCc3ccccc3)nc3c2c(=O)[nH]c(=O)n3C)cc1 (stereo not given) > 76.9 µM
CN(Cc1ccncc1)C1CC(=O)N(c2ccc(Cl)cc2)C1=O (stereo not given) > 76.9 µM
COc1ccc(C(=O)N2CCN(c3cccc(Cl)c3)CC2)c(OC)c1 > 76.9 µM
Cn1c(NCc2ccco2)nc2c1c(=O)n(Cc1ccc(Cl)cc1)c(=O)n2C > 76.9 µM
O=C(CCc1ccc(S(=O)(=O)N2CCOCC2)cc1)NCCc1ccccn1 > 76.9 µM
Cc1cc(O)ccc1Nc1nc(-c2sc(N)nc2C)cs1 > 76.9 µM
CC1(C)CC(=O)c2c(nn(-c3ccccc3)c2N)C1 > 76.9 µM
[O-][N+]1=C(c2cccs2)CN(O)C1 > 76.9 µM
COc1ccc(N2C(=O)CC(NC34CC5CC(CC(C5)C3)C4)C2=O)c(OC)c1 (stereo not given) > 76.9 µM
COCCCn1c(=N)c(C(=O)NCc2ccc3c(c2)OCO3)cc2c(=O)n3cccc(C)c3nc21 > 76.9 µM
Cc1cc(C)cc(Nc2ncc3c(n2)CCCC3=O)c1 > 76.9 µM
O=C1COc2cccnc2N1 > 76.9 µM
Cc1cc(-n2c(SCCC#N)nnc2-c2cccnc2)ccc1Cl > 76.9 µM
COc1cccc(Oc2cn[nH]c2-c2ccc(O)cc2O)c1 > 76.9 µM
COc1ccc(CNC(=O)C2CCN(S(=O)(=O)c3ccc(-c4nn[nH]n4)cc3)CC2)cc1 > 76.9 µM
c1ccc(OCc2nnc3sc(-c4cccs4)nn23)cc1 > 76.9 µM
Cc1cc(NC(=O)CSc2nnc(CNc3cccc(C(F)(F)F)c3)n2Cc2ccco2)no1 > 76.9 µM
CCc1nnc(NC(=O)c2cc3ccccc3oc2=O)s1 > 76.9 µM
CCOC(=O)c1ccc(NC(=O)c2ccc3c(c2)OCO3)cc1 > 76.9 µM
CNC(=O)CSc1nnc(-c2cccc(S(=O)(=O)N3CCOCC3)c2)n1-c1ccc(F)cc1 > 76.9 µM
CC(=O)N(CCO)Cc1cc2cc(C)cc(C)c2[nH]c1=O > 76.9 µM
Cc1ccc(S(=O)(=O)CCC(=O)OCC(=O)N2CC(=O)Nc3ccccc32)cc1 > 76.9 µM
Cc1cc(OCn2ccc(C(=O)O)n2)ccc1Cl > 76.9 µM
CC(=O)Nc1ccc(S(=O)(=O)N2CCSC2c2ccccc2Cl)cc1 (stereo not given)
COc1ccc(N2CCN(c3nc(NCCc4ccc(OC)c(OC)c4)nc(OC)n3)CC2)cc1 > 76.9 µM
c1coc(-c2nc3c4c5c(sc4ncn3n2)CCCC5)c1 > 76.9 µM
O=c1cc(N2CCc3ccccc3C2)[nH]c(=O)n1Cc1ccc(F)cc1 > 76.9 µM
Cn1c(=O)[nH]c(=O)c2c1nc(NCc1ccccc1)n2CCCc1ccccc1 > 76.9 µM
CCCNS(=O)(=O)c1ccc(CCC(=O)N2CCC(C)CC2)cc1 > 76.9 µM
CCOc1ccccc1CNC(=O)C1CCCN(c2nc3ccccc3o2)C1 (stereo not given) > 76.9 µM
CCC(C)c1ccc(O)c(N)c1 (stereo not given) > 76.9 µM
Cn1c(C(=O)NCc2ccccn2)cc2c(=O)n3ccccc3nc21 > 76.9 µM
O=C(NCCc1ccccc1)C1CCN(S(=O)(=O)c2cccs2)CC1 > 76.9 µM
Cc1ccc(-c2ccc(=O)n(CC(=O)NCCCN3CCCCC3)n2)cc1 > 76.9 µM
N#CCSc1nc(Nc2ccc3c(c2)OCO3)c2ccccc2n1
CCC(C)(C)n1nnnc1C(c1cc2cc(C)cc(C)c2[nH]c1=O)N1CCCC1 (stereo not given) > 76.9 µM
O=c1oc2c(CN3CCOCC3)c(O)ccc2c2c1CCC2 > 76.9 µM
CCn1nnnc1SCC(=O)NCc1ccco1 > 76.9 µM
c1coc(CNC2CCCCCCC2)c1 > 76.9 µM
Cc1nc(N2CCN(Cc3ccccc3)CC2)nc2c1C(=O)CCC2 > 76.9 µM
Nc1nncn1C(=O)c1cc(Br)ccc1Cl > 76.9 µM
Cc1csc(Sc2nc3c(c(=O)[nH]c(=O)n3C)n2CCCc2ccccc2)n1 > 76.9 µM
CCn1c(N)c(C(=O)NC2CCCCC2)sc1=S > 76.9 µM
COc1ccccc1N1CCN(C(=O)CN(c2cc(C)cc(C)c2)S(C)(=O)=O)CC1 > 76.9 µM
O=C(NCc1ccco1)c1nn(-c2ccccc2)c(=O)c2ccccc12 > 76.9 µM
NC(=O)c1c(NC(=O)Cc2cccs2)sc2c1CCC2 > 76.9 µM
CCc1ccc(C2C3=C(CC(C)(C)CC3=O)Nc3c2c(=O)[nH]c2nc(C)nn32)cc1 (stereo not given) > 76.9 µM
CN(C)c1ccc(-c2nnc(-c3ccc(S(=O)(=O)C(F)F)cc3)o2)cc1 > 76.9 µM
CC(=O)c1cccc(NC(=O)COc2ccc(S(=O)(=O)N3CCCCC3)cc2)c1 > 76.9 µM
Cc1ccnc(NC(=O)c2cc(S(=O)(=O)N3CCCCC3)ccc2Cl)c1 > 76.9 µM
C=CCNC(NC(=O)c1ccccc1)(C(=O)OCC)C(F)(F)F (stereo not given) > 76.9 µM
CCOc1ccccc1C(=O)Nc1ccc2nc(N3CCN(c4ncccn4)CC3)cc(C)c2c1 > 76.9 µM
CCN(C(=O)CSc1nc2cc(C(=O)OC)ccc2c(=O)n1Cc1ccco1)c1cccc(C)c1 > 76.9 µM
Cn1c(C2=C(O)CN(c3ccc4c(c3)OCCO4)C2=N)nc2ccccc21 > 76.9 µM
CCC(C)NC(=O)C1CCN(C(=O)N(C)C)CC1 (stereo not given) > 76.9 µM
COc1cc(Cl)c(C)cc1NC(=O)COc1cc(C)nc(C(C)C)n1 > 76.9 µM
COc1ccccc1NC(=O)N1CCCC1C(=O)NCc1ccc(F)cc1 (stereo not given) > 76.9 µM
Cc1ccc(C)c(NC(=O)Cn2nc(C)c3ccccc3c2=O)c1 > 76.9 µM
Cc1cc(NC(=O)CSc2nc(-c3ccco3)cc(C(F)(F)F)n2)no1 > 76.9 µM
Cc1ccc(S(=O)(=O)NCCNC(=O)N2CCOCC2)cc1 > 76.9 µM
CNC(=O)NC(=O)COC(=O)CCCOc1ccc(OC)cc1 > 76.9 µM
Cn1nnnc1SCC(=O)Nc1ccc(Br)cc1Cl > 76.9 µM
O=C(CC(c1ccco1)C1CCCCC1=O)c1ccco1 (stereo not given) > 76.9 µM
CC(C)[C@H](NC(=O)NC1CCCc2ccccc21)C(=O)O (stereo not given in full) > 76.9 µM
Cn1ncc(C#N)c1NC(=O)c1nn2cccnc2c1Cl > 76.9 µM
O=C(CCN1C(=O)COc2ccccc21)NCCC1=CCCCC1 > 76.9 µM
O=S(=O)(NCc1csc(-c2cccnc2)n1)c1ccc2c(c1)OCCO2 > 76.9 µM
O=C(Nc1ccccc1NC(=O)NC1CCCCC1)NC1CCCCC1 > 76.9 µM
CCCCSc1nnc([C@@H]2CCCN2C(=O)OC(C)(C)C)o1 > 76.9 µM
CCc1cccc(NS(=O)(=O)c2ccc3c(c2)oc(=O)n3C)c1 > 76.9 µM
